Data reported in the supplement of paper PMC7125110.
± gives the standard error. Variants at the floor of the assay are shown more often than the library holds them.

B1: glmS ribozyme (parent)
chain: AUAAAAGCGCCAGAACUACAGAAAUGUAGUUGACGAGGAGGAGGUUUAUCGAAUUUUCGGCGGAUGCCUCCAAA

How the values were obtained:
Settings in all cases: with glucosamine-6-phosphate
glucosamine-6-phosphate [1] = variants of: B1; experiment: self-cleavage kobs at 640 uM GlcN6P; higher = faster cleavage; RNA array
Outline: (§1)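 In situ transcription by E. coli RNA polymerase produced barcoded ribozyme variants on sequenced MiSeq chips, and a hybridised Cy3 probe tracked them at 37 °C. Glucosamine-6-phosphate was flowed in at 40 μM to 10 mM in HEPES/KCl/Mg(OAc)2 buffer. kcat and KM were taken from weighted Michaelis–Menten fits of kobs values from exponential decay fits.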

glucosamine-6-phosphate [2] = variants of: B1; experiment: self-cleavage kobs at 160 uM GlcN6P; higher = faster cleavage; RNA array
Outline: as §1

glucosamine-6-phosphate [3] = variants of: B1; experiment: self-cleavage kobs at 2500 uM GlcN6P; higher = faster cleavage; RNA array
Outline: as §1

glucosamine-6-phosphate [4] = variants of: B1; experiment: self-cleavage kobs at 10000 uM GlcN6P; higher = faster cleavage; RNA array
Outline: as §1

Variant	self-cleavage kobs at 640 uM GlcN6P (glucosamine-6-phosphate [1])	self-cleavage kobs at 160 uM GlcN6P (glucosamine-6-phosphate [2])	self-cleavage kobs at 2500 uM GlcN6P (glucosamine-6-phosphate [3])	self-cleavage kobs at 10000 uM GlcN6P (glucosamine-6-phosphate [4])
A12U A48G	9.16e-05 ± 1.3e-05 s⁻¹	2.8e-05 ± 1.2e-05 s⁻¹	0.000246 ± 3e-05 s⁻¹	0.000156 ± 1.5e-05 s⁻¹
A12U G29U A52U G62U	< 1e-05 s⁻¹		< 1e-05 s⁻¹	
A12U G37C G41U	< 1e-05 s⁻¹			
A12U G59U	< 1e-05 s⁻¹			
A12U G62A	< 1e-05 s⁻¹	< 1e-05 s⁻¹		< 1e-05 s⁻¹
G13A A15C	5.24e-05 ± 1.1e-05 s⁻¹		9.3e-05 ± 2.5e-05 s⁻¹	0.000198 ± 2.6e-05 s⁻¹
G13A A15G	0.000327 ± 5.6e-05 s⁻¹	6.23e-05 ± 1.3e-05 s⁻¹	0.000431 ± 7.3e-05 s⁻¹	0.000784 ± 0.00011 s⁻¹
G13A A15U A42G G66C	< 1e-05 s⁻¹		< 1e-05 s⁻¹	
G13A A39U U55C	4.33e-05 ± 1.4e-05 s⁻¹		0.000128 ± 2.9e-05 s⁻¹	
G13A C34A C58U	< 1e-05 s⁻¹	< 1e-05 s⁻¹		
G13A C34A C67U C70G	< 1e-05 s⁻¹		< 1e-05 s⁻¹	
G13A G32C	6.56e-05 ± 8.7e-06 s⁻¹		0.000136 ± 1.8e-05 s⁻¹	0.000388 ± 5.3e-05 s⁻¹
G13A G35A U46A	< 1e-05 s⁻¹	< 1e-05 s⁻¹	< 1e-05 s⁻¹	
G13A G35U C50U	< 1e-05 s⁻¹			
G13A G37A G66C	< 1e-05 s⁻¹			
G13A G40U U65C	< 1e-05 s⁻¹			
G13A U31A A33U C70U	< 1e-05 s⁻¹	< 1e-05 s⁻¹	< 1e-05 s⁻¹	
G13C A14C C61A C67U	4.47e-05 ± 1.8e-05 s⁻¹			
G13C A42C G59U	< 1e-05 s⁻¹			
G13C A48U C50U	< 1e-05 s⁻¹		< 1e-05 s⁻¹	
G13C A52G C70G	0.000164 ± 5.2e-05 s⁻¹	0.000297 ± 0.00012 s⁻¹	7.21e-05 ± 3e-05 s⁻¹	
G13C C61G C68U	< 1e-05 s⁻¹		< 1e-05 s⁻¹	
G13C G29U	3.22e-05 ± 1.3e-05 s⁻¹		6.58e-05 ± 8.4e-06 s⁻¹	0.000125 ± 1.6e-05 s⁻¹
G13C G40C A48G C61G C70A	< 1e-05 s⁻¹		< 1e-05 s⁻¹	
G13C G41U C71U	< 1e-05 s⁻¹			
G13C U46A C67G	< 1e-05 s⁻¹			
G13C U47A G63C	< 1e-05 s⁻¹		< 1e-05 s⁻¹	
G13U A14U A48U	< 1e-05 s⁻¹			
